# Results from PubChem BioAssay (NCI).
# Where “and” joins values, the source holds several entries; their conditions need not be identical. Identical values can stand only once.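 Compound exposure: 48 hours, 5 concentrations, 96-well plates. The concentration for 50% growth inhibition is given as GI50. TGI denotes the concentration required for complete inhibition of growth.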
# Tested on: NCI-H322M lung
# Assay: DTP human tumour cell line panel, 48 h
SMILES,TGI,GI50 [µM]
O=C(NC(OCc1ccccc1)(C(F)(F)F)C(F)(F)F)OCc1ccccc1,30.9 µM,
COc1cc(C)[nH]c(=O)c1CNC(=O)c1c(C)n([C@H](C)C2CCN(CC(F)(F)F)CC2)c2ccccc12,> 100 µM,71.1
Clc1ccccc1C1SCc2nc3ccccc3n21 (stereo not drawn),> 100 µM,
COc1cc(OC)c(/C=N\Nc2nc3ccccc3c(=O)n2-c2ccccc2)c(OC)c1,49.2 µM,
COc1cc2c(cc1-c1coc3cc(O)ccc3c1=O)OCO2,83.1 µM,
COC(=O)C1=CC(=O)[C@@H]2CCCC[C@H]12,> 100 µM,
O=c1oc2ccccc2n1P(=O)(Oc1ccc(Cl)cc1)n1c(=O)oc2ccccc21,> 100 µM,
C=CC(=O)N1CCC[C@@H](n2nc(-c3ccc(Oc4ccccc4)cc3)c3c(N)ncnc32)C1,> 10 µM,0.253
CCN(/N=C1\CC2C=CCN(C2)C(=O)Cc2c1[nH]c1ccccc21)S(=O)(=O)c1ccc(C)cc1 (stereo not drawn),> 100 µM,
CCc1ncc(CO)n1Cc1cccc2ccccc12,> 100 µM,
CN1CCN(c2n[nH]c(=O)c3c2nnn3C2CCCCC2)CC1,> 100 µM,
O=C(OCC(OC(=O)c1ccccc1)C1CC(C2(O)CCCCC2)C(=O)O1)c1ccccc1 (stereo not drawn),> 25 µM,
N#Cc1cccc(C2C(=O)c3ccc(C(=O)c4ccc5c(c4)C(=O)N(c4ccc(Oc6ccc(N7C(=O)c8ccc(C(=O)c9ccc%10c(c9)C(=O)N(c9cccc(C#N)c9)C%10=O)cc8C7=O)cc6)cc4)C5=O)cc3C2=O)c1 (stereo not drawn),> 100 µM,
O=C(O)c1ccc(Nc2cnc3cc(C(F)(F)F)ccc3n2)cc1,> 100 µM,
CC(C)CC1N=C(OCc2ccccc2)OC1=O (stereo not drawn),> 100 µM,
CC(C)C(CCOS(=O)(=O)O)CCC(C)[C@H]1[C@@H](O)C(O)C2[C@]3(O)C[C@@H](O)C4(O)C[C@@H](O)CC[C@]4(C)C3CC[C@@]21C (stereo partly drawn),> 100 µM,
CCOC(=O)C(=O)C(C#N)c1ccc(Cl)cc1 (stereo not drawn),> 100 µM,
CCN(CC)CC(O)c1cc(-c2ccc(Cl)cc2)nc2c(C)c(Cl)ccc12 (stereo not drawn),3.05 µM,1.64
Cc1cccc(-c2nc(-c3cnccn3)n(Cc3ccccc3)n2)c1,> 100 µM,
CN(C)C1CN(C(=O)c2cc(-c3ccc4ncnc(N5CCc6cc(F)c(Cl)cc65)c4c3)cnc2N)C1,> 100 µM,0.686
C[C@]12CC[C@@H]3c4ccc(OC(=O)N(CCCl)CCCl)cc4CC[C@H]3[C@@H]1CC[C@@H]2OP(=O)(O)O,> 100 µM,50.2
CCCCCCCCCCCCCCCCCCOc1ccccc1COP(=O)(O)OOCC[N+](C)(C)C,13.2 µM,6.2
COC(=O)c1c2c(cc3c1CC1(C3)Cc3cc4c(c(C(=O)OC)c3C1)CCC4)CCC2,> 100 µM,
Cn1cnc(C(=N)[Se])c1N,2.14 µM,

SMILES,TGI,GI50 [µM]
COc1ccc(-c2c3c(nc4nc(SCC(=O)c5ccc(Br)cc5)nc(N)c24)CCCC3)cc1OC,> 100 µM,
CN1C2(c3ccccc3)C(C(=O)c3ccccc3)=C(C(=O)c3ccccc3)C1(c1ccccc1)c1c(-c3ccccc3)sc(-c3ccccc3)c12,> 100 µM,
CN(/N=C/C=N/N(C)C1=NCCN1)C1=NCCN1,> 100 µM,
Nc1n[nH]c2ccc([C@@H]3Nc4ccc5cn[nH]c5c4[C@H]4C5CCC(C5)[C@@H]34)cc12 (stereo partly drawn),> 100 µM,0.61
COc1ccc(/C=C/C(=O)/C=C(O)/C=C/c2ccc(OC)c(OC)c2)cc1OC,> 100 µM,9.23
Cc1ccc(-c2cc(=O)c(=O)[nH][nH]2)cc1,> 100 µM,
CC(C)C(=O)/C=C/c1c(Cl)cccc1Cl,17.4 µM,
COC(=O)Cc1c(C2C(CC(=O)OC)c3ccccc3N2C2OC(CO)C(O)C(O)C2O)[nH]c2ccccc12 (stereo not drawn),> 100 µM,
Cc1ccc(S(=O)(=O)Nn2c(S)c(C#N)c(-c3ccc(Cl)cc3)c(C#N)c2=O)cc1,> 100 µM,
CN(Cc1cnc2nc(N)nc(N)c2n1)c1ccc(C(=O)NCCCC(=O)O)cc1,> 100 µM,
[CH3][Hg]/[N]=C(/N)NC#N,39.4 µM,20.7
O=C(Nc1cccc(-n2ccc3c(NC(=O)c4ccccc4)nccc32)c1)c1ccc(Cl)c(C(F)(F)F)c1,11.3 µM and > 100 µM,
CC(C)(C)CI,> 100 µM,
CCN(CC)CCSc1c(C(C)=O)c(=O)n(-c2ccccc2)c(=S)n1-c1ccccc1,> 100 µM,
CC[C@@H](C)/C=C(C)/C=C/C(=O)c1c(O)c(-c2ccc(O)cc2)cn(OC2CC(=O)CCC(C)OC(=O)CC2O)c1=O (stereo partly drawn),9.22 µM,0.265
C=C1CC[C@@H]2[C@](C)(COC(=O)CCC(=O)O)CCC[C@@]2(C)[C@@H]1CCC1=CC(=O)OC1,> 100 µM,
CC1=C(C(=O)Nc2ccc(C)cc2)C(c2cccc([N+](=O)[O-])c2)C(C(=O)Nc2ccc(C)cc2)=C(C)N1,> 100 µM,
Cc1c(C(=O)c2ccccc2)[n+](=O)c2cc(F)c(F)cc2n1[O-],7.2 µM,1.16
C/C(=N\O)c1cccc(Nc2c3ccccc3nc3occc23)c1,97.9 µM,
CON[N+]([O-])=NC(C)C,> 100 µM,
COc1ccc2nc3cc(Cl)ccc3c(NCCCCCC(=O)NC(COc3ccc4ccc5cccnc5c4n3)COc3ccc4ccc5cccnc5c4n3)c2c1,35 µM,
CC(=O)ON=C1C=CC(=C(C#N)c2ccccc2)C=C1,16.8 µM,3.44
C=C(C)[C@H]1CC(=O)[C@@]2(C)C[C@H]3O[C@]3(C)CC/C=C(\C)CC[C@H]12,> 100 µM,
CC/C=C\C=C/C(=O)N/C=C/CCC,> 100 µM,

SMILES,TGI,GI50 [µM]
COc1cc(N(CCCl)CCCl)ccc1/C=N\NC(=O)c1cccnc1,> 100 µM,45.9
O=C(CCN1CCCN(c2cnc3ccccc3n2)CC1)c1csc2ccccc12,> 100 µM,59.6
COc1ccc(C=O)cc1OS(=O)(=O)C(F)(F)C(F)(F)C(F)(F)C(F)(F)F,> 100 µM,
COc1ncc(-c2ccc3nccc(C#CCCCCC(=O)NO)c3c2)cc1NS(=O)(=O)c1ccc(F)cc1F,7.08 µM,< 0.041
COc1ccc(-c2cc(=O)c3cc(O)ccc3o2)c(OC)c1OC,> 100 µM,
CCCCCCCCCC[C@H](O)[C@H]1CC[C@@H]([C@@H](O)CC[C@H](O)[C@@H]2CCC(CCCCCCC[C@@H](O)CC3=C[C@H](C)OC3=O)O2)O1 (stereo partly drawn),7.95 µM and 23.7 µM,8.3
CC(N)C(C)c1ccccc1 (stereo not drawn),> 100 µM,
Cn1c(=O)n(C2(C)CSC2)c2ccccc21,> 100 µM,
COCCCNc1c2ccccc2nc2ccccc12,29.3 µM,
CC(=O)O[C@@H]1CC[C@@]2(C)C(=O)C34C[C@@]5(C)C([C@@H](C)CCCC(C)C)CCC5(C)[C@](O)(O3)C(=O)[C@H]4C2C1(C)C (stereo partly drawn),33.3 µM,
Nc1ccc(C2SCC(=O)N2NS(=O)(=O)c2cccc(C(=O)O)c2)cc1 (stereo not drawn),> 100 µM,
C=C(C)COc1cc(NC(=S)OC(C)C)ccc1Cl,29.9 µM,
C[C@@H](c1ccccc1)N1CO[C@@]2(C#Cc3ccc4c(c3)OCO4)CCC[C@@H]12,59 µM,
C=C(C)CCC(O)[C@](C)(O)[C@H]1[C@H](O)C[C@@]2(C)[C@@H]3CCc4c(cc(OC5OC(CO)C(O)C(O)C5O)c(O)c4C)C3(C)C(=O)C[C@]12C (stereo partly drawn),> 100 µM,
COc1ccc2c(ccc3c(C(=O)NCCCN(C)CCCNC(=O)c4cn(C)c5c4ccc4cc(OC)ccc45)cn(C)c32)c1,9.61 µM,
CCCCCCCCCCCCCCCC(=O)OC1C(O)C(O)C(O)C(O)C12CO2 (stereo not drawn),> 100 µM,
CC1(C)N([O-])[N+](=O)C1(C)O (stereo not drawn),> 100 µM,
CC1(C)C(CC(=O)O)CCCC1CC(=O)O (stereo not drawn),> 100 µM,
O=C(CC(=O)N1N=C(N(c2ccccc2)c2ccccc2)CC1c1ccccc1)Nc1cccc(Cl)c1 (stereo not drawn),> 100 µM,
CCOc1cc2c(cc1O)C(=O)C[C@@H]1[C@@H]2CC[C@]2(C)[C@@H](O)CC[C@@H]12,> 100 µM,
COC(=O)C1Cc2cc3c(cc2C1)CCC3,> 100 µM,
COC1C(=O)CCC2(CO2)C1(O)C1(C)OC1CC=C(C)C (stereo not drawn),> 100 µM,
NC(=O)c1csc(-c2ccc(CO)o2)n1,> 100 µM,
O=C(CCCn1ccnc1[N+](=O)[O-])NCCn1cnc([N+](=O)[O-])n1,> 100 µM,

SMILES,TGI,GI50 [µM]
NC(CSCSCC(N)C(=O)O)C(=O)O (stereo not drawn),> 225 µM,
Cc1ccccc1-n1c(CCl)nc2ccc(Br)cc2c1=O,32.2 µM,
COc1ccc2nc3ccccc3c(NCCN(CCCl)CCCl)c2c1,7.73 µM,
C=C1CN2CCc3c([nH]c4ccccc34)C2CC1CC(=O)N(C)C (stereo not drawn),> 309 µM,
O=C(O)c1ccc(/C=N/N=C2c3ccccc3-c3ccccc32)cc1,> 100 µM,
Cc1ccc(NC(=O)CC2SC(=Nc3ccc(Cl)cc3)NC2=O)cc1C (stereo not drawn),61.1 µM,
COc1cc(C(=O)NN=C2c3ccccc3-c3ccccc32)cc(OC)c1OC,27.7 µM,5.15
CC(=O)Nc1cc2c3c(cccc3c1)-c1ccccc1-2,55.4 µM,16.8
C[C@]12CC[C@H]3[C@@H](CC[C@]4(O)C[C@@H](O[C@@H]5O[C@H](CO)[C@@H](O[C@@H]6OC[C@@H](O)[C@H](O)[C@H]6O)[C@H](O)[C@H]5O)CC[C@]34C=O)[C@@]1(O)CC[C@@H]2C1=CC(=O)OC1,4.26 µM,1.26
COc1c(B(O)O)cccc1-c1nc2c(F)cc3n[nH]c(C)c3c2c2c1CCCC2,> 50 µM,1.5
O=C1c2ccc3c4c(ccc(c24)C(=O)N1CCNCc1ccccc1)C(=O)N(CCNCc1ccccc1)C3=O,5.69 µM,2.22
Fc1ccc(Nc2nc3nonc3nc2Nc2ccc(I)cc2)cc1,11.3 µM,0.262
CC1OC(CO)(n2cnc3c(N)ncnc32)C(O)C1O (stereo not drawn),> 100 µM,
O=C1N[C@H](C(=O)O)[C@@H](c2ccc(OCc3ccccc3)cc2)O1,> 100 µM,
CC1C(O)=C(O)c2ccccc2N1O (stereo not drawn),> 100 µM,
CC(C)C1=CC2=C(C(=O)C1=O)C13CCCC(C)(C)C1CC2OC3=O (stereo not drawn),> 100 µM,
O=C(CC1(O)C(=O)Nc2ccccc21)c1ccccc1O (stereo not drawn),> 100 µM,
CC1[C@@H]2CC=C3[C@H]4CCC5Cc6nc7c(nc6C[C@@]5(C)C4CC(=O)[C@]32CO[C@]12OC(C)(C)CC2O)CC1CC[C@@H]2C3=C[C@H]4O[C@@]5(O[C@@](C)(CO)C[C@@H]5O)C(C)[C@@]4(O)[C@]3(C)[C@@H](O)CC2[C@]1(C)C7 (stereo partly drawn),0.682 µM,0.0903
COC(=O)C1=CCC2c3[nH]c4ccccc4c3CCN2C1 (stereo not drawn),> 354 µM,
COc1ccc(CNc2nc3cc(C(F)(F)F)ccc3nc2C(=O)O)cc1,72.1 µM,
O=C(Nc1cccc(-n2cc(-c3ccncc3)c(-c3ccc(Cl)c(O)c3)n2)c1)Nc1ccc(Cl)c(Cl)c1,> 32.5 µM,2.89
S=C1NNC2(C(=S)N1)c1ccccc1-c1ccccc12,> 10 µM,
